The values below come from paper PMC5862874.

The target in assay [1] is DJ-1 (wild type), yeast two-hybrid fusion (human) (UniProt Q99497). Kind of assay: two-hybrid; screens of human substantia nigra and human frontal cortex cDNA libraries with pGLex-DJ-1 as bait.
Assay [2] has as its target DJ-1 E163K, yeast two-hybrid fusion (human) (UniProt Q99497). Kind of assay: two-hybrid; S. cerevisiae L40; bait pGLex-DJ-1 (LexA DNA-binding domain, wt or mutant) with a GAL4 AD prey plasmid; colonies on medium lacking leucine and tryptophan tested for beta-galactosidase activity by LacZ freeze-fracture filter assay.
Assay [3] concerns the target DJ-1 K130R, yeast two-hybrid fusion (human) (UniProt Q99497). The assay is described as above.
Assay [4] has as its target DJ-1 L166P, yeast two-hybrid fusion (human) (UniProt Q99497). The assay is described as above.
Assay [5] addresses DJ-1 R98Q, yeast two-hybrid fusion (human) (UniProt Q99497). The assay is described as above.
For assay [6], the target named is DJ-1 E64D, yeast two-hybrid fusion (human) (UniProt Q99497). Described as above.
Assay [7] addresses DJ-1 A104T, yeast two-hybrid fusion (human) (UniProt Q99497). Described as above.
In assay [8] the target is DJ-1 M26I, yeast two-hybrid fusion (human) (UniProt Q99497). The assay is described as above.
The target in assay [9] is DJ-1 D149A, yeast two-hybrid fusion (human) (UniProt Q99497). Described as above.
Assay [10] has as its target DJ-1 (wild type), yeast two-hybrid fusion (human) (UniProt Q99497). Described as above.
The target in assay [11] is T1, FLAG-DJ-1 L166P (human), Q99497.
T1 chain: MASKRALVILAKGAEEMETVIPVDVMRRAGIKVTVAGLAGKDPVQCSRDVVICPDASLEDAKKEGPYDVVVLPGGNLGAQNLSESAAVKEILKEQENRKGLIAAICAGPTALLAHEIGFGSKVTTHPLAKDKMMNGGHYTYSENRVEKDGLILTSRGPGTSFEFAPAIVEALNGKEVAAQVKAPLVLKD
Kind of assay: co-IP; HEK293T cells co-transfected with FLAG-DJ-1 (wt or mutant) and myc-DJBP; 1% Nonidet P-40 lysates incubated with anti-FLAG agarose 2 h at 4°C, eluted with FLAG peptide, Western blot (anti-FLAG, anti-c-myc, anti-DJ-1). The settings on record: remark: other sources report otherwise. (Immunoblotting shows a protein as a band on a membrane.)

Assay [12] concerns the target T2, FLAG-DJ-1 (wild type) (human), Q99497.
T2 chain: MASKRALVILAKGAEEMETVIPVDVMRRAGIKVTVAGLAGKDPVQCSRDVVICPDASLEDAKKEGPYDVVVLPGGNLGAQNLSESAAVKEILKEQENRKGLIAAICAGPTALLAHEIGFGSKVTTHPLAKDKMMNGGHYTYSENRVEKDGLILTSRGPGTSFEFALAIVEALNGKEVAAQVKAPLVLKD
Described as above. The settings on record: remark: other sources report otherwise.

Assay [13] addresses T3, DJ-1 L166P, yeast two-hybrid fusion (human), Q99497.
T3 chain: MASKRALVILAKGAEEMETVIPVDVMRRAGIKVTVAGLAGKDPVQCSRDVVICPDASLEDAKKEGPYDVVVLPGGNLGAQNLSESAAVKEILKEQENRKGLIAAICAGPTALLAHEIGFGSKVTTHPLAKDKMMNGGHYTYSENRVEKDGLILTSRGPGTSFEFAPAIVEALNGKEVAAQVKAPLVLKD
The assay is described as follows: two-hybrid; S. cerevisiae L40; bait pGLex-DJ-1 (LexA DNA-binding domain, wt or mutant) with a GAL4 AD prey plasmid; colonies on medium lacking leucine and tryptophan tested for beta-galactosidase activity by LacZ freeze-fracture filter assay. The settings on record: remark: other sources report otherwise.

In assay [14] the target is T4, DJ-1 (wild type), yeast two-hybrid fusion (human), Q99497.
T4 chain: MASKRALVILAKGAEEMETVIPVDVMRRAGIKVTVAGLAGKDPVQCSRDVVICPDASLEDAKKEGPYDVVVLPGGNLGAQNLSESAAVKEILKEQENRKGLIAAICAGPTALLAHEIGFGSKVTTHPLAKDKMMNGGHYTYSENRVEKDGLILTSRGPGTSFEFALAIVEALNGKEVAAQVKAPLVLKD
The assay is described as above. The settings on record: remark: other sources report otherwise.

Results are given in words; binding and its absence hold for the method and conditions named. For part of these data: Binding seen in cells or lysates may run through a third protein. Some entries that bind do so weakly or less than the wild type. For part of these data: Where a sequence is shown, tags or fusion partners need not be part of it.

B1: SIMC1 (SUMO interacting motifs containing 1) amino acids 1-245, yeast two-hybrid prey (domain or fragment, UniProt Q8NDZ2 1-245)
chain: MAPASASGEDLRKLPTMAEVNGEQDFIDLTRETRPRTKDRSGLYVIDLTRAEGENRPIATLDLTLEPVTPSQKEPTSLQTCASLSGKAVMEGHVDRSSQPTARRIINSDPVDLDLVEENTFVGPPPATSISGGSVYPTEPNCSSATFTGNLSFLASLQLSSDVSSLSPTSNNSRSSSSSSNQKAPLPCPQQDVSRPPQALPCPLRPLPCPPRASPCPPRASSCPPRALSCPSQTMQCQLPALTHP
B1: the binding result in assay [1] is “binds”; in assay [2], “binds”; in assay [3], “binds”; in assay [4], “no binding”; in assay [5] it was “binds”; in assay [6], “binds”. Besides, the binding result in assay [7], in assay [8], in assay [9] and in [10] was “binds” throughout.

B2: DJ-1 co-purified with FLAG-DJ-1 from HEK293T lysates, Q99497 1-189 (protein)
chain: MASKRALVILAKGAEEMETVIPVDVMRRAGIKVTVAGLAGKDPVQCSRDVVICPDASLEDAKKEGPYDVVVLPGGNLGAQNLSESAAVKEILKEQENRKGLIAAICAGPTALLAHEIGFGSKVTTHPLAKDKMMNGGHYTYSENRVEKDGLILTSRGPGTSFEFALAIVEALNGKEVAAQVKAPLVLKD
Consider B2, for which the binding result in [11] and in assay [12] was “binds” throughout.

B3: DJ-1 L166P, yeast two-hybrid fusion, Q99497 1-189 (protein)
chain: MASKRALVILAKGAEEMETVIPVDVMRRAGIKVTVAGLAGKDPVQCSRDVVICPDASLEDAKKEGPYDVVVLPGGNLGAQNLSESAAVKEILKEQENRKGLIAAICAGPTALLAHEIGFGSKVTTHPLAKDKMMNGGHYTYSENRVEKDGLILTSRGPGTSFEFAPAIVEALNGKEVAAQVKAPLVLKD
For the molecule B3, the results for the binding result in [13] and in assay [14] were “no binding” and “binds”, respectively.

B4: homeodomain-interacting protein kinase 2 (HIPK2 isoform 2) amino acids 818-884, yeast two-hybrid prey (domain or fragment, UniProt Q9H2X6-3 818-884)
chain: VHSSPACSTSVTCGWGDVASSTTRERQRQTIVIPDTPSPTVSVITISSDTDEEEEQKHAPTSTVSKQ
Turning to B4, the binding entry in [1] is recorded as “binds”; in assay [2], “binds”; in assay [3], “binds”; in assay [4], “no binding”; in [5], “binds”; in assay [6], “binds”. In addition, the binding entry in assay [7], in assay [8], in [9] and in assay [10] was “binds” each time.
